From PubChem BioAssay AID1346428 (National Center for Advancing Translational Sciences (NCATS), 2018)
In all, about 48,000 compounds went through this assay and about 1,200 (2.5%) were called active. Another 2% or so got no clear call; they are omitted.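 Rule for the calls: active = activation of at least 60% and not above a set upper limit (about 1 call in 100 departs from these limits); inconclusive = activation of 40% to 60%, or above that upper limit; inactive = activation under 40%.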 Some of the results follow.

target: Probable G-protein coupled receptor 32 (Homo sapiens) (UniProt O75388); test: qHTS for Agonists of Human Resolvin D1 Receptor DRV1; conditions: CHO-K1 GPR32 beta-arrestin PathHunter luminescence, 90 min; at 76.9 µM; active compounds read high; zero percent set by DMSO-only wells; note: 0% is about no effect
Chain of UniProt O75388 (O75388 whole entry, looked up): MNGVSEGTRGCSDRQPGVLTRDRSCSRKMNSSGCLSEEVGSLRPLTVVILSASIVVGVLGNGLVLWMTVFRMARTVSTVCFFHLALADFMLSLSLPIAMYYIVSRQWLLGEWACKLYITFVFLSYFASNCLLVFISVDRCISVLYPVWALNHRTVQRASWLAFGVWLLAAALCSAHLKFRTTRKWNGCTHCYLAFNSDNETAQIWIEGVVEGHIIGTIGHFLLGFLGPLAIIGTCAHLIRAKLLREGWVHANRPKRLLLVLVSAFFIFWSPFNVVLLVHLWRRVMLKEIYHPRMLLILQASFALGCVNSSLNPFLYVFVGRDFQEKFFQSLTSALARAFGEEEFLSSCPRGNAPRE
Procedure, shortened: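 Cells are plated overnight, treated with compounds in DMSO for 90 minutes at 37 °C, and developed with PathHunter detection reagent for 1 hour before luminescence is read; signal reflects beta-arrestin binding to GPR32 in engineered CHO-K1 cells.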

SMILES | activation
CSc1ccc(-c2nc3ccc(C)cn3c2Nc2ccccc2C)cc1 | inactive: -7.33%
Cc1cccc(-c2nnn3c2nc(NCCc2ccc(S(N)(=O)=O)cc2)c2cc(Cl)ccc23)c1 | inactive: 27.1%
CS(=O)(=O)N(CC(=O)NCCc1ccccc1)c1cc(C(F)(F)F)ccc1Cl | inactive: -19.2%
Cc1cccc(Oc2nc3c(c(=O)n(C)c(=O)n3C)n2C)c1 | inactive: -4.01%
CCCCCn1c(=O)[nH]c2cc(C(=O)N3CCN(c4cccc(C)c4)C(C)C3)ccc2c1=O (centres undefined) | active: 104%
O=C(NCC12CC3CC(CC(C3)C1)C2)c1cc2nc(-c3ccccc3)cc(C(F)(F)F)n2n1 | inactive: -1.6%
CC(NC(=O)c1ccccc1NC(=O)c1nsc2ccccc12)c1ccccc1 (centres undefined) | inactive: -22%
O=C1CCCc2cc(S(=O)(=O)NCC3CCC(C(=O)Nc4ccccc4F)CC3)ccc2N1 (centres undefined) | inactive: 0%
Fc1cc(Br)ccc1Nc1c2c(nc3nc(-c4cccs4)nn13)CCCC2 | inactive: -51.1%
CNC(=O)c1cc(Nc2nnc(-c3ccc(O)cc3)c3ccccc23)ccc1OC | inactive: 0.272%
COC(=O)c1ccc(OC)c(Cn2c(=O)n(Cc3ccccc3)c(=O)c3c2c2cc(OC)ccc2n3C)c1 | inactive: -19.9%
CCCCOc1ccc(C(=O)N2CCN(CCc3ccccn3)CC2)cc1 | inactive: 17%
CC(=O)c1ccc(NC(=O)C2=CC(c3ccc4c(c3)OCO4)=NS(=O)(=O)N2C)cc1 | inactive: -5.28%
Cc1ccc(S(=O)(=O)Cc2nc(-c3ccc(C(=O)NCc4ccccc4)cc3)oc2C)cc1 | active: 77.2%
CC1CCN(Cc2c(O)ccc3c(=O)c(-c4cccc(Cl)c4)c(C(F)(F)F)oc23)CC1 | inactive: -2.95%
CC(=O)c1cc2c(cc1NC(=O)c1c(C)nn(-c3ccc(C)cc3)c1-n1cccc1)OCO2 | inactive: -9.16%
COc1cccc(N2CCN(C(=O)c3cnn(C(C)(C)C)c3C3CCN(C(=O)OC(C)(C)C)CC3)CC2)c1 | inactive: -11.1%
O=C(c1ccc2c(c1)CCN2S(=O)(=O)c1ccccc1)N1CCN(c2ccc(F)cc2)CC1 | inactive: 1.72%
COc1ccc(OCCn2cc(C(=O)C3CCCCC3)c3ccccc32)cc1 | inactive: -24.2%
O=C(Nc1cccc(Br)c1)N1CCC(CN2CCCCC2)CC1 | inactive: 3.27%
Cc1ccc(NC(=O)CSc2nc3ncccc3[nH]2)cc1F | inactive: 0.321%
O=C(NCc1ccc(Cl)cc1)C(=O)Nc1ccc(Br)cc1 | inactive: -0.341%
CCc1cccc(NC(=O)Cn2c(=O)n(Cc3ccccc3)c(=O)c3c2c2cc(OC)ccc2n3C)c1 | inactive: -0.644%
COC(=O)c1c(NC(=O)CCCOc2ccc(C(C)(C)C)cc2)sc2c1CCC(C)C2 (centres undefined) | inactive: 0.607%
CCc1ccccc1NC(=O)Cn1c(-c2nonc2N)nc2ccccc21 | inactive: -8.9%
O=C(NCCc1csc(-c2ccc(Cl)cc2)n1)c1cccs1 | inactive: 33.2%
CCN(C(=O)Cn1nc(Cc2cccnc2)c2ccccc2c1=O)c1ccccc1F | inactive: -24.2%

SMILES | activation
O=S(=O)(Nc1ccc2oc3c(c2c1)CCCC3)c1cc(Cl)ccc1Cl | inactive: 46.8%
COc1ccc(NC(=O)/C(C#N)=C/c2ccc(OCc3cc(=O)n4nc(C)sc4n3)cc2)cc1 | inactive: -0.255%
CC1CCN(C(=O)CSc2nnc(-c3ccccc3Cl)o2)CC1 | inactive: -4.05%
Cc1ccc(S(=O)(=O)NCCc2cn3c(C)csc3n2)cc1 | inactive: -6.07%
Cc1cccc(NC(=O)C2CCN(c3nnc(-n4c(C)ccc4C)s3)CC2)c1C | inactive: -20.4%
COc1ccc(-c2nnc(C3CCN(C(=O)c4ccccc4F)CC3)o2)cc1 | inactive: -13.5%
Cc1ccc2nc(-c3cc(NC(=O)c4ccc5c(c4)OCCO5)ccc3Cl)oc2c1 | inactive: -16.6%
COc1ccc(NC(=O)CCNS(=O)(=O)c2cccc3nsnc23)cc1 | inactive: -24.8%
COc1ccc(C2Sc3ccccc3NC3=C2C(=O)c2ccccc23)c(OC)c1OC (centres undefined) | inactive: -69%
CCCCN(CC)CCNC(=O)c1cc2c(=O)oc3ccc(C)cc3c2s1 | inactive: 0.333%
CCn1c(=O)c2cc(C(=O)NCCc3cc(OC)ccc3OC)sc2c2ccccc21 | inactive: 7.51%
O=C(NCc1cccc(F)c1)c1ccc(-n2cnc3cccnc32)cc1 | inactive: -7.22%
Cc1cccc(Cn2cc(C(=O)Nc3ccc(F)c(C(F)(F)F)c3)ccc2=O)c1 | inactive: 17.6%
CCc1ccc2oc(-c3ccc(NC(=O)c4ccc(OC)c(Br)c4)cc3)nc2c1 | inactive: -0.417%
Cc1ccc(-n2c(C)nc3c(cnn3-c3ccccc3C)c2=O)cc1F | inactive: 9.15%
Cc1ccc(-c2cc(C(F)(F)F)n3nc(C(=O)Nc4ccc(Cl)c(C(F)(F)F)c4)cc3n2)cc1 | inactive: 5.23%
Cn1cc(S(=O)(=O)c2ccccc2)c(=O)c2cc(F)c(N3CCN(c4ccccc4)CC3)cc21 | inactive: -9.31%
Cc1cccc(-n2c(-c3ccccc3)cn3c4c(=O)[nH]c(=O)n(C)c4nc23)c1 | inactive: 2.93%
Cc1cc(C)c(Cn2c3ccccc3c3cnn(CC(=O)N4CCCCCC4)c(=O)c32)c(C)c1 | inactive: -8.12%
Cc1cccc(C)c1OCC(=O)Nc1nc(-c2ccc(Br)cc2)ns1 | inactive: -8.89%
O=C(Cn1c(=O)n(-c2cccc(Cl)c2)c(=O)c2sc3ccccc3c21)N1CCCC1 | inactive: -8.49%
CCOc1ccc(C(=O)Nc2c(C(=O)Nc3ccccc3F)oc3ccccc23)cc1OCC | inactive: -1.53%
COC(=O)c1cc(C)nc2c1c(=O)nc(SCc1ccccc1F)n2C1CC1 | inactive: -15%
CCOC(=O)CN1C(=O)C(O)(CC(=O)c2cc(OC)ccc2OC)c2ccccc21 (centres undefined) | inactive: 0.0068%
CCN(CC)CCCNC(=O)C1CCN(S(=O)(=O)CC)CC1 | inactive: -6.86%
O=S1(=O)c2ccccc2N(Cc2ccccc2)c2ccccc21 | inactive: 19.8%
CC(=O)c1ccc(NC(=O)c2c3c(nc4ccccc24)C(=O)N(C2CCCCC2)C3)cc1 | inactive: 33.5%
